Test results: PubChem BioAssay AID463173 (ICCB-Longwood Screening Facility, Harvard Medical School, 2010)
Hit rate of the full screen: of about 52,000 compounds, about 4,300 (8.3%) were called active. No stated cut-off is given here; in the data, active means survival mostly below about 52% (no sharp cut-off); inactive means mostly above about 56%. The list shows a part of the results.

test system: DeltatarO mutant; test: S. aureus survival, RN4220 and DeltatarO strains – OD600, teichoic acid synthesis inhibitors, primary screen (AID 463173); conditions: S. aureus RN4220 wild type/DeltatarO growth, OD600, 18 h, stronger effect = lower value, screened at 18.75 µg/mL (by protocol)

| SMILES | survival |
| --- | --- |
| COc1ccc(CNC(=O)CCc2c(C)nn(-c3ccc(N4CCOCC4)nn3)c2C)cc1 | inactive: 123% |
| Cc1ccc(CCNS(=O)(=O)c2ccc3c(c2)CCN3C(=O)CCC(=O)O)cc1 | inactive: 122% |
| CCc1ccc(NC(=O)CCc2c(C)n(C)c3cc(-c4ccccc4C)nn3c2=O)cc1 | inactive: 55% |
| Cc1cccc(N2CCN(C(=O)CCCn3ncn4c(cc5occc54)c3=O)CC2)c1C | inactive: 58% |
| Cn1c(=O)n(C)c2cc(N3CCOCC3)c(NS(=O)(=O)c3ccc(Br)cc3)cc21 | inactive: 74% |
| CCOc1cc(CNCCSc2nnnn2C)cc(Cl)c1OCc1ccc(Cl)cc1 | active: 2% |
| CCC1SC(=NC(=O)c2cccs2)NC1=O (stereo not given) | inactive: 84% |
| O=C(NCC(c1cccnc1)N1CCc2ccccc2C1)C(=O)Nc1cccc(Cl)c1 (stereo not given) | inactive: 54% |
| COc1ccc(-c2cc(C(=O)NCCc3ccccc3)c3c(-c4ccccc4)[nH]nc3n2)cc1 | inactive: 87% |
| O=C(Cc1ccc(F)cc1)Nc1cccc(-c2nc3cccnc3s2)c1 | inactive: 95% |
| CCc1nn(CC(=O)NCCCN2CCN(C)CC2)c(=O)c2cc3occc3n12 | inactive: 124% |
| COc1ccc(C(=O)c2c(N)c(-c3nc(-c4ccccc4)cs3)c3ccccn23)cc1 | inactive: 62% |
| COC(=O)c1c(NC(=O)COc2ccc(Cl)cc2C)sc2c1CCCCC2 | inactive: 68% |
| COc1ccc(OC)c(NC(=O)CSC2=Nc3ccccc3C3=NC(CCC(=O)NC4CCCCC4)C(=O)N23)c1 (stereo not given) | inactive: 67% |
| CSc1cccc(NC(=O)CC(c2ccc(F)cc2)N2Cc3ccccc3C2=O)c1 (stereo not given) | inactive: 69% |
| COc1ccc(C)cc1NC(=O)c1oc2ccc(S(=O)(=O)N3CCOCC3)cc2c1C | inactive: 90% |
| O=C(CSc1nnc(-c2ccco2)o1)NC(c1ccccc1)c1ccccc1 | active: 61% |
| CC(=O)N1CCc2c(sc3c2c(=O)n(-c2ccccc2)c(=O)n3Cc2cccc(C(F)(F)F)c2)C1 | inactive: 111% |
| Cc1ccc(/C=C/c2nc3ccccc3n2S(=O)(=O)c2ccc(Br)cc2)cc1 | inactive: 75% |
| COc1ccc(N2CCN(C(=O)CCc3c(C)nc4cc(-c5cccc(F)c5)nn4c3C)CC2)cc1 | inactive: 67% |
| COc1cccc(N=C2SC(C(=O)Nc3cccc(Cl)c3)CC(=O)N2C)c1 (stereo not given) | inactive: 46% |
| CCOC(=O)c1cnc2c(ccc3ccccc32)c1Nc1ccc(OC)cc1OC | active: 8% |
| O=C(NC1CCCCC1)N1CCN(c2ccccn2)CC1 | inactive: 94% |

| SMILES | survival |
| --- | --- |
| COc1ccc(CNS(=O)(=O)c2ccc(F)c(C(=O)Nc3c(C)cc(C)cc3C)c2)cc1 | inactive: 85% |
| CCOC(=O)c1cc(-c2ccc(OC)cc2)n(CCC(=O)Nc2cccc(C(C)=O)c2)c1C | inactive: 64% |
| Cc1cc2oc(C(=O)Nc3sc4c(c3C(=O)NCc3ccccc3)CCCC4)cc(=O)c2cc1C | active: 39% |
| COc1cccc(-c2nc3c(c(SCc4ccccc4Cl)n2)Cc2c(CO)cnc(C)c2O3)c1 | inactive: 83% |
| CCc1ccc(C(=O)CSc2nc(-c3ccccc3)nc3c2CCCC3)cc1 | inactive: 60% |
| Cc1ccc(CNC(=O)CN2C(=O)CSc3ccc(S(=O)(=O)N4CCCC4)cc32)cc1 | inactive: 69% |
| O=C(NCCn1cnc2cccnc21)N(c1ccccc1)c1ccccc1 | inactive: 97% |
| COc1ccc2nc3sc(C(=O)N4CCN(c5ccc(F)cc5)CC4)cc3cc2c1 | inactive: 93% |
| Cc1ccc(C)c(N2CCN(S(=O)(=O)c3ccc4c(c3)CCCN4C(=O)C3CCC3)CC2)c1 | inactive: 78% |
| O=C(CN1C(=O)C2(SCC(=O)N2c2ccccc2)c2ccccc21)NCCc1ccccc1 (stereo not given) | inactive: 116% |
| Cc1cn2c(=O)cc(COC(=O)c3ccccc3F)nc2s1 | inactive: 79% |
| Cc1ccc(CNS(=O)(=O)c2cc3c(cc2C)N(C)CCO3)cc1 | inactive: 88% |
| CCc1ccc(NC(=O)CSc2nc3c(sc4ccccc43)c(=O)n2CCN(CC)CC)cc1 | inactive: 102% |
| COc1cc(C)ccc1OCCSc1nc2ccc(NC(=O)c3cccs3)cc2s1 | inactive: 72% |
| Cc1ccc(C(=O)Nc2ccccc2C(=O)OCc2cc(=O)n3nc(C4CC4)sc3n2)cc1 | inactive: 85% |
| CCCN(CCC)C(=O)C1CCCN(c2ncnc3onc(-c4ccc(F)cc4)c23)C1 (stereo not given) | inactive: 90% |
| Cc1ccc(CSCCC(=O)N2CCN(c3cc(C)ccc3C)CC2)cc1 | inactive: 77% |
| CCC(C)NC(=O)CSc1nnc(-c2ccc(C)cc2)c(-c2ccc(C)cc2)n1 (stereo not given) | inactive: 83% |
| COCCCNC(=O)c1sc2nc(C)c(C(=O)Nc3ccc(C)cc3C)c(-c3ccc(Br)cc3)c2c1N | inactive: 70% |
| COc1ccc(-c2noc(CN(C(=O)Cc3ccc(C)cc3)C(C)C)n2)cc1 | active: 16% |
| CCOC(=O)c1cc2occc2n1CC | inactive: 98% |
| COc1cccc(CNC(=O)C2CCN(C(=O)c3sccc3-n3cccc3)CC2)c1 | inactive: 83% |
| O=C(NCCCO)C(=O)Nc1c2c(nn1-c1ccccc1)CSC2 | inactive: 77% |

| SMILES | survival |
| --- | --- |
| CCCN(CCC)C(=O)c1cn(CC)c2ccc(S(=O)(=O)N3CCCCC3)cc2c1=O | inactive: 126% |
| CCC(CC)C(=O)NCc1nc2cccnc2n1Cc1ccc(F)cc1 | inactive: 66% |
| COC(=O)C1CC23C=CNC4CCC5(c6ccccc6NC15C2C)C43 (stereo not given) | inactive: 91% |
| Cc1ccccc1CNC(=O)c1cc2cccc3c2n1CC(C)S3 (stereo not given) | inactive: 92% |
| O=C(Nc1cccc(Cl)c1)c1cc(S(=O)(=O)N2CCCc3ccccc32)ccc1F | inactive: 108% |
| CCOc1cc(C2CC(=O)Nc3c2c(=O)nc(SCc2cccc(Cl)c2)n3C)ccc1O (stereo not given) | inactive: 44% |
| COc1ccc(-c2cc(C(=O)Nc3sc4c(c3C(N)=O)CCC(C)C4)no2)cc1 (stereo not given) | inactive: 168% |
| Cc1ccc(S(=O)(=O)C(CNC(=O)COc2ccc(Cl)cc2)c2ccco2)cc1 (stereo not given) | inactive: 108% |
| CCOc1ccc(-c2nnc(SCC(=O)c3ccc(F)cc3)n2-c2ccccc2)cc1 | inactive: 168% |
| CCOC(=O)c1cc(C(C)(C)C)oc1CN | inactive: 92% |
| CC(=O)Nc1cccc(NC(=O)CSc2nccn2Cc2ccco2)c1 | inactive: 83% |
| Cc1cc(C)cc(NC(=O)CCCc2nnc3n(CC(C)C)c(=O)c4sccc4n23)c1 | inactive: 103% |
| Cc1ccc(NC(=O)c2ccc3c(c2)NC(=O)c2ccccc2S3)cc1 | inactive: 108% |
| CCN(CC)CCCNC(=O)C(=O)Nc1ccc2nc3n(c(=O)c2c1)CCCCC3 | inactive: 91% |
| COc1ccc(/C=C/C(=O)Nc2ccc(Cl)cc2Cl)cc1 | inactive: 86% |
| Cc1ccc(Cn2ccnc2SCC(=O)Nc2ccc3c(c2)OCCO3)cc1 | inactive: 78% |
| CCCCNC(=O)c1cc(-c2ccc(Cl)c(Cl)c2)on1 | active: 45% |
| NS(=O)(=O)c1ccc(NC(=O)CN2CCN(c3ccc(F)cc3)CC2)cc1 | inactive: 70% |
| Cc1cccn2c(=O)cc(COc3ccc(NC(=O)C(C)Oc4ccccc4)cc3)nc12 (stereo not given) | inactive: 88% |
| COc1ccc(-n2c(SCC(=O)NC3CCCCC3)nc3c([nH]c4ccccc43)c2=O)cc1 | active: 37% |
| Cc1ccc(Cl)cc1-n1ncc2c(NCCC3=CCCCC3)ncnc21 | inactive: 91% |
| Fc1ccccc1N1CCN(c2ncnc3onc(-c4cccc(Cl)c4)c23)CC1 | inactive: 53% |
| CCOC(=O)c1[nH]cnc1C(=O)NC1CCCCC1 | inactive: 80% |

| SMILES | survival |
| --- | --- |
| Cc1c(NC(=O)Nc2ccc(Cl)c(C(F)(F)F)c2)c(=O)n(-c2ccccc2)n1C | inactive: 124% |
| CC(=O)Nc1ccc(NC(=O)c2nc(SCc3ccccc3C)ncc2Cl)cc1 | inactive: 73% |
| COc1cccc(OCc2cc(=O)n3cc(C)sc3n2)c1 | active: 40% |
| COc1ccccc1CNC(=O)C(=O)NCC(c1cccnc1)N1CCN(c2ccc(F)cc2)CC1 (stereo not given) | inactive: 71% |
| CCOc1ccc(CCNC(=O)CN2C(=O)COc3ccc(S(=O)(=O)N(CC)CC)cc32)cc1 | inactive: 109% |
| O=S(=O)(c1cccc2nsnc12)N1CCOCC1 | inactive: 91% |
| Cc1ccc(-c2nc(S(=O)(=O)c3ccc(C)cc3)c(N3CCCCC3)o2)cc1 | active: 0% |
| COc1nc(C)ccc1-c1noc(-c2ccccc2)n1 | inactive: 102% |
| O=C(Nc1ccc2nc(SCC(=O)N3CCCC3)sc2c1)c1cccc(F)c1 | inactive: 65% |
| CCc1ccc(-n2c(=O)c3ccc(C(=O)NCCc4ccccc4)cc3n(Cc3ccccc3C#N)c2=O)cc1 | inactive: 127% |
| COC(=O)c1c(-c2cccs2)csc1NC(=O)c1ccc(C(C)(C)C)cc1 | inactive: 83% |
| CSc1ccc(C2c3[nH]c4ccccc4c3CCN2C(=O)CCC2CCCC2)cc1 (stereo not given) | inactive: 74% |
| COc1ccccc1NC(=O)COC(=O)CC(C)(C)CC1=NS(=O)(=O)c2ccccc2N1 | active: -1% |
| COc1ccc2c(CNCc3ccco3)c(C(=O)O)n(Cc3ccccc3)c2c1 | inactive: 78% |
| CC1CCc2c(sc3nc(SCC(=O)Nc4c[nH]c(=O)[nH]c4=O)[nH]c(=O)c23)C1 (stereo not given) | inactive: 90% |
| COc1ccc(Cl)cc1NC(=O)Cn1nnc(C(=O)NCc2cccs2)c1N | inactive: 69% |
| COc1cccc(N2CC(NC(=O)C3CCCC3)CC2=O)c1 (stereo not given) | active: 46% |
| COc1ccc(N2CCN(C(=O)c3c4c(nc5ccccc35)C(=O)N(C3CCCCC3)C4)CC2)cc1 | inactive: 124% |
| COCCNC(=O)Cn1cc2c(n1)-c1c(oc(C(=O)N3CCCC3)c1C)CC2 | inactive: 82% |
| Cc1cc(N2CCOCC2)nc([S+]2CCCC2)n1 | inactive: 94% |
| NC(=O)Cn1c(=O)n(CCCCCC(=O)NCc2ccccc2Cl)c(=O)c2sccc21 | inactive: 101% |
